Assay results as given in publication PMC7819943, “Rice protein-binding microarrays: a tool to detect cis-acting elements near promoter regions in rice”.
Some of the results follow.

Each sequence was assayed against T1, OsWOX13 (Oryza sativa, UniProt Q5QMM3 1-267) (assay: protein-binding microarray (RPBM); PBS, 2% BSA, 51.3 ng/ul salmon testes DNA, 50 uM zinc acetate, 200 nM TF, 25 C, 1 h; high values mean tight binding). Settings: protein: recombinant; tags: N-terminal polyhistidine and DsRed monomer fusion (pET32a); label: CyDye5-dUTP incorporated in the synthesized complementary strand; 3' TTTTT single-stranded linker to array surface; dsDNA, one strand shown.
T1 sequence: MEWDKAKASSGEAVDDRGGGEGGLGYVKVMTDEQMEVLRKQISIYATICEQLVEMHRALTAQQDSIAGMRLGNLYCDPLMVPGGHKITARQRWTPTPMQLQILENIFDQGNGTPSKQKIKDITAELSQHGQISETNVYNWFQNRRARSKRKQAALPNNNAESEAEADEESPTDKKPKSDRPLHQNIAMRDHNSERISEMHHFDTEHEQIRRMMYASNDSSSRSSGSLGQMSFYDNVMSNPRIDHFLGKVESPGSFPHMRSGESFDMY
Method in brief: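 Binding signal here means per-feature fluorescence intensity in arbitrary units. The values were read on an Axon 4000B scanner after a custom Agilent array, double-stranded by primer extension with Cy5-dUTP, was incubated with 200 nM protein at 25 °C for 1 h in PBS with 2% BSA, salmon testes DNA and 50 µM zinc acetate, then washed. The proteins were transcription factors with an N-terminal polyhistidine tag and DsRed, expressed in E. coli BL21-CodonPlus and purified on Ni–NTA.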

Point of comparison: “CTCTTAATCACTATAATATTAAAATATGGTTGCACGAGGACGGAGTCACCTAGTGCAG”, binding signal 5840 fluorescence intensity (a.u.). Against it:
- TTCCAAGATGTTATCACCAATCATCCCATGGCATAACGGACGGAGTCACCTAGTGCAG — higher, 6240 fluorescence intensity (a.u.)
- TTAAATCAAGATTGAATATATTTTGATAATATGTTTGTTTCGGAGTCACCTAGTGCAG — higher, 24300 fluorescence intensity (a.u.)
- AAGATAACTAATTACATAGATTGTATGTAAATTACGAGACCGGAGTCACCTAGTGCAG — higher, 33200 fluorescence intensity (a.u.)
- AATGATCTCACTTGATTGATTTAAGTATATGGAAGTTATACGGAGTCACCTAGTGCAG — higher, 32000 fluorescence intensity (a.u.)
- AGGCAAATTATGGAGATTAACCATAGGCTACAGGCCCTTTCGGAGTCACCTAGTGCAG — higher, 11100 fluorescence intensity (a.u.)
- ACTATCAAATTGAGTAGTATTCAATTTGAACTATTGTGGGCGGAGTCACCTAGTGCAG — higher, 14200 fluorescence intensity (a.u.)
- AAATAATTTGTTGTTTCGAAAATTTACAAATCTAATCGCCCGGAGTCACCTAGTGCAG — higher, 28200 fluorescence intensity (a.u.)
- TAAGTTAAATAACTATTAATTGTGGCCTGTGCTCAGCCTTCGGAGTCACCTAGTGCAG — higher, 9070 fluorescence intensity (a.u.)
- TAGAATTGATTGTGCGAGAGAGATAATTGAACACAGGAATCGGAGTCACCTAGTGCAG — higher, 47500 fluorescence intensity (a.u.)
- ATTGATTTGATTGTATTCATAATCATACAATTATCTTAGCCGGAGTCACCTAGTGCAG — higher, 65200 fluorescence intensity (a.u.)
- GTTTAATGATAAATCTAGTAATATTAATTTTACATGATTGCGGAGTCACCTAGTGCAG — higher, 25600 fluorescence intensity (a.u.)
- AATGATTTGGATGTACCTTTGCTATATGTAATGCTATTTTCGGAGTCACCTAGTGCAG — higher, 28900 fluorescence intensity (a.u.)
- TAAATTGATCAAATTGCCATTTGGAGTGCAGTGACGGGCTCGGAGTCACCTAGTGCAG — higher, 54900 fluorescence intensity (a.u.)
- CTGATTGGTTAGTAAGAGAATGTTGGTGGTGAAGTTGTTACGGAGTCACCTAGTGCAG — higher, 29900 fluorescence intensity (a.u.)
- TCCATAAACTAAATTAAGGTTGGGTTTTCTGATGGCATAACGGAGTCACCTAGTGCAG — higher, 9500 ± 697 fluorescence intensity (a.u.)
- CATGACAATTAATTAGCATCTCTTCTCTTCTAAATTATTACGGAGTCACCTAGTGCAG — higher, 27800 fluorescence intensity (a.u.)
- GTTTGATTGCTTAATTAATTTCCAAATGCGCAATCATGCACGGAGTCACCTAGTGCAG — higher, 64800 fluorescence intensity (a.u.)
- GATAATTTAGAATTTAAACTTTTACATACATATTCTTAATCGGAGTCACCTAGTGCAG — higher, 6460 fluorescence intensity (a.u.)
- ATATTATTAATCATCATATAATGGTGTTATGTGAAGTGTGCGGAGTCACCTAGTGCAG — lower, 3420 fluorescence intensity (a.u.)
- CTCAAATTTATAGTTTTGCGATAGTTTGGTCAATGTTTATCGGAGTCACCTAGTGCAG — higher, 6310 fluorescence intensity (a.u.)
- ACGGACTAATTAAATAAGCATAAAGAACTTAAGTTGATCGCGGAGTCACCTAGTGCAG — higher, 18300 fluorescence intensity (a.u.)
- AAAACTAATGAGACTAAATAATTAGTGCAGAAAATTTTGACGGAGTCACCTAGTGCAG — higher, 7520 fluorescence intensity (a.u.)
- CAGCGGATTAATTACTACCACTACCACAAATAATTCATTACGGAGTCACCTAGTGCAG — higher, 7010 fluorescence intensity (a.u.)
- ATAGACAAATTGTTTCTAAGTTTAACTATGTTTATAGACACGGAGTCACCTAGTGCAG — higher, 9020 fluorescence intensity (a.u.)
- AAAACAGTCATTAGCAAATTATCCTCCTCTTATTAGGACTCGGAGTCACCTAGTGCAG — higher, 16500 fluorescence intensity (a.u.)
- AACTGACAGGTGGGGTCACGGGGCAACACCAATTCGTGGGCGGAGTCACCTAGTGCAG — lower, 5620 fluorescence intensity (a.u.)
- GTTTTGAATAATTAATATTTAATTATTTATGAGCTAATGGCGGAGTCACCTAGTGCAG — higher, 34400 fluorescence intensity (a.u.)
- CACGACCGACCGTTATCATCAATCATCATCGATCCGTTGCCGGAGTCACCTAGTGCAG — higher, 11600 fluorescence intensity (a.u.)
- GTCCAGCTTAAGCTTAATTATCACTCAAAACGGGACAGGGCGGAGTCACCTAGTGCAG — lower, 3420 fluorescence intensity (a.u.)
- TCAATTGAATGTTGCGTGAGTGATGATGCCCTTGTGGGACCGGAGTCACCTAGTGCAG — lower, 3860 fluorescence intensity (a.u.)
- GTGATTGATGAAGTCACCACAGACGCCTCGCTGTCGACGGCGGAGTCACCTAGTGCAG — higher, 26000 fluorescence intensity (a.u.)
- TTCAGTTATGTAATTATTGTACCTTTGAAACTGCTAGCCACGGAGTCACCTAGTGCAG — lower, 4170 fluorescence intensity (a.u.)
- TAATTGATTAGCAGTAAGGTATTGGTTGTCCAATCTTGCTCGGAGTCACCTAGTGCAG — higher, 58400 fluorescence intensity (a.u.)
- TTGAATTGCCATTACAAGCAGAAACTGGGTAGCCCAGCAGCGGAGTCACCTAGTGCAG — lower, 3260 fluorescence intensity (a.u.)
- CAATCTTGATTGTTGGGCAGTTGGGCTTAGTTGATGTATGCGGAGTCACCTAGTGCAG — higher, 33100 fluorescence intensity (a.u.)
- AATAAAATAATCAAACGTTACGTGAAAATTTAACGATATCCGGAGTCACCTAGTGCAG — lower, 3410 fluorescence intensity (a.u.)
- CCAAATGATAGCACCATCATTCTCTGTCAGTGTGGACCTTCGGAGTCACCTAGTGCAG — higher, 6390 fluorescence intensity (a.u.)
- GTGTATGATAGATTGATGTGATAGAAAAGGACTGAAGTTTCGGAGTCACCTAGTGCAG — higher, 24600 fluorescence intensity (a.u.)
- AATTTTAATTAATCTCGTATTGGATTCTTATATGGACTCTCGGAGTCACCTAGTGCAG — higher, 9780 fluorescence intensity (a.u.)
- GGAAGAATTGATTGATTAAAGATATATATCGAATATCTGCCGGAGTCACCTAGTGCAG — higher, 40400 fluorescence intensity (a.u.)
- TCGATCTCCATTAATTATCCAACGACGACACGACGACGCACGGAGTCACCTAGTGCAG — lower, 5720 fluorescence intensity (a.u.)
